Reference: PubChem BioAssay AID1745853 (National Center for Advancing Translational Sciences (NCATS), 2022)
Where “and” joins values, the source holds several entries; their conditions need not be identical. Equal values may be shown once. Some of the results follow. These are further read-outs of the screen, such as a control signal, another cell line or another target. No call is given for them.

Legend:
Assay in all cases: Primary Screen for Target Class Profiling of Small Molecule Inhibitors of Methyltransferases
[1] = target: Glycine N-methyltransferase (Homo sapiens) (UniProt Q14749); conditions: purified enzyme, MTase-Glo SAH luminescence; measured here: GNMT inhibition; at 40 µM; stronger effect = lower value
How it was run: (§1)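 Each enzyme was reacted with SAM and its substrate, with compounds tested once at 40 uM; SAH formed was read by MTase-Glo luminescence.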

[2] = target: Guanidinoacetate N-methyltransferase (Homo sapiens) (UniProt Q14353); conditions: purified enzyme, MTase-Glo SAH luminescence; measured here: GAMT inhibition; at 40 µM; stronger effect = lower value
How it was run: as §1

[3] = target: Histamine N-methyltransferase (Homo sapiens) (UniProt P50135); conditions: purified enzyme, MTase-Glo SAH luminescence; measured here: HNMT inhibition; at 40 µM; stronger effect = lower value
How it was run: as §1

[4] = target: Nicotinamide N-methyltransferase (Homo sapiens) (UniProt P40261); conditions: purified enzyme, MTase-Glo SAH luminescence; measured here: NNMT inhibition; at 40 µM; stronger effect = lower value
How it was run: as §1

[5] = target: Phenylethanolamine N-methyltransferase (Homo sapiens) (UniProt P11086); conditions: purified enzyme, MTase-Glo SAH luminescence; measured here: PNMT inhibition; at 40 µM; stronger effect = lower value
How it was run: as §1
% is scaled to controls: 0 for no effect and ±100 for the full control effect.

| SMILES | activity change, negative = inhibition [1] | activity change, negative = inhibition [2] | activity change, negative = inhibition [3] | activity change, negative = inhibition [4] | activity change, negative = inhibition [5] |
| --- | --- | --- | --- | --- | --- |
| CCn1cnnc1CC1CCN(S(=O)(=O)c2ccc(OC)cc2)CC1 | 3% | 0% | 3.93% | -1.87% | 3.68% |
| COC(=O)[C@@H]1[C@H]2C[C@H]3c4[nH]c5ccccc5c4CCN3C[C@@H]2CC[C@@H]1O | 1.63% and 4.81% | 4.06% [middle of 4 runs] | 10.6% and 8.41% | -6.56% [middle of 4 runs] | 4.77% [middle of 4 runs] |
| CCCSc1nc(NC2CC2c2ccc(F)c(F)c2)c2nnn(C3CC(OCCO)C(O)C3O)c2n1 (configuration not stated) | -22.8% |  | -27.8% |  |  |
| CCOc1ccc(CN2C(=O)c3cc4sccc4n3CC2(C)C(=O)NC2CCCCC2C)cc1 (configuration not stated) | 4.14% | 8.54% | 2.08% | 2.72% | -1.68% |
| C[C@]12C=CC(=O)C=C1CC[C@@H]1[C@@H]2[C@@H](O)C[C@@]2(C)[C@H]1CC[C@]2(O)C(=O)COC(=O)CCC(=O)O | -2.72% | -6.08% | 17.2% | -12.3% | 3.21% |
| CCC(C)n1ncn(-c2ccc(N3CCN(c4ccc(OC[C@H]5CO[C@](Cn6cncn6)(c6ccc(Cl)cc6Cl)O5)cc4)CC3)cc2)c1=O (some centres not stated) | -2.84% |  | 2.16% |  |  |
| CCCC1c2ccc(C)n2CCN1C(=O)NC(CC(=O)OCC)c1ccccc1 (configuration not stated) | -9.59% | 1.23% | -14.2% | -6.49% | -9.71% |
| O=C(Cn1nc2nc(Nc3ccc(F)cc3)ccn2c1=O)Nc1ccc(F)cc1 | -4.51% | -5.19% | 2.2% | -9.66% | -7.23% |
| CC(C)C[C@H](NC(=O)[C@H]1O[C@@H]1C(=O)O)C(=O)NCCCCN=C(N)N |  | -3.87% |  | -21.1% | -9.07% |
| CC(C)Cn1c(=O)c2ccc(C(=O)NC(C)C)cc2n2c(SCc3cccc(Cl)c3)nnc12 | 2.47% | 3.93% | 0.225% | -2.67% | 0.224% |
| CC1(C(=O)NC2CCCCC2)Cn2c(cc3ccccc32)C(=O)N1Cc1cccc(Br)c1 (configuration not stated) | -2.58% | 1.91% | -2.36% | -3.03% | 0.493% |
| C=C(C)C(O)COc1ccc(CC(=O)O)cc1 (configuration not stated) | 0.23% | 2.21% | 10.6% | -8.03% | -1.94% |
| COC1CCC12CCNCC2 (configuration not stated) | -4.86% | -5.08% | -2.55% | -7.79% | -10.3% |
| CCNC(=O)NCCc1noc(-c2ccncc2)n1 | 1.13% | 0.459% | 0.566% | -2.43% | 3.34% |
| CCN(CCNC(=O)C1CCCCC(=O)N1C)Cc1ccccc1 (configuration not stated) | -0.243% | 1.33% | 1.94% | -2.67% | -0.927% |
| CCC(C)NC(=O)c1ccc2c(=O)n(C)c3nn(CC(=O)NC(C)C)c(=O)n3c2c1 (configuration not stated) | 8.54% | 2.83% | 7.72% | 6.44% | 8.3% |

| SMILES | activity change, negative = inhibition [1] | activity change, negative = inhibition [2] | activity change, negative = inhibition [3] | activity change, negative = inhibition [4] | activity change, negative = inhibition [5] |
| --- | --- | --- | --- | --- | --- |
| COc1ccc(OC)c2c1cc1n2CC(C)(C(=O)NC2CCCCC2C)N(Cc2ccccc2)C1=O (configuration not stated) | -10.7% | -0.883% | -6.23% | -13.2% | -3.91% |
| CN(Cc1nc2ccc(F)cc2[nH]1)C(=O)c1cn(CCN)nn1 | -6.08% | -3.2% | -1.49% | -9.06% | -4.29% |
| CNc1ccc([N+](=O)[O-])cc1-n1cnc(-c2ccc(C(F)(F)F)cc2)c1 | -1.19% | -16.4% | -1% | -31.8% | -15.5% |
| COc1cccc(C(C)N(C)C(=O)c2cc(Cn3ccnc3C(C)C)[nH]n2)c1 (configuration not stated) | -2.52% | -6.54% | -2.79% | -11% | -6.03% |
| Cc1ccccc1CNC(=O)Cn1ccc2cc(S(=O)(=O)N3CCCC3)ccc21 | 1.07% | 0% | 2.93% | -2.97% | 0.765% |
| CCCN1C(=O)c2cc(C(=O)NCCCc3ccccc3)nn2CC1(C)C(=O)NC1CCCC1 (configuration not stated) | -1.33% | 1.36% | -6.76% | -3.46% | -3.02% |
| CC1(C(=O)NC2CCCCC2)Cn2c(c(-n3cccc3)c3ccccc32)C(=O)N1Cc1ccccn1 (configuration not stated) | 4.45% | 0% | 5.68% | -37.5% | 3.99% |
| COCCN1C(=O)c2cc3ccccc3n2CC1(C)C(=O)NC1CCCC1 (configuration not stated) | 7.35% | 0.536% | 5.92% | 11.1% | 3.25% |
| CC(=O)N1CCCC(c2nn(-c3ccccn3)c(=O)[nH]2)C1 (configuration not stated) | -3.46% | -4.62% | -1.21% | -11.8% | 9.45% |
| CC1CCN(C(=O)Cn2c(=O)oc3cc(S(=O)(=O)N4CC(C)CC(C)C4)ccc32)CC1 (configuration not stated) | -0.283% | 0% | 0.51% | -1.17% | -10.9% |
| CC(=O)N1CCCC1c1nc(C2CN(S(=O)(=O)c3cccc(C)c3)C2)no1 (configuration not stated) | 0.409% | -2.2% | 1.22% | -1.21% | 1.36% |
| Cc1[nH]c(/C=C2\C(=O)Nc3ccc(S(=O)(=O)N(C)c4cccc(Cl)c4)cc32)c(C)c1C(=O)N1CCN(C)CC1 | -5.23% | 24.3% | -2.82% | -51.7% | 6.62% |
| N[C@@H](CC(=O)Nc1ccc(Oc2cc(F)c(F)cc2Br)cc1)C(=O)O | -3.41% | -8.04% | -3.98% | -22.2% | -43.6% |
| CC1(C)NC(=O)N(c2ccc([N+](=O)[O-])c(C(F)(F)F)c2)C1=O | -10.3% | 1.82% | -3.89% | -3.77% | 3.18% |
| CCOc1ccc(N2C(=O)c3cc4sc(CC)cc4n3CC2(C)C(=O)NC2CCCCCC2)cc1 (configuration not stated) | 5.96% | 2.01% | 10.6% | 8.67% | 3.29% |
